From PubChem BioAssay (Tox21)
Values joined by “and” are separate entries in the source; they are usually repeats but may differ in a detail not shown here. Equal values may be shown once. The inconclusive results got no clear call from the source; some entries with a clear call stand among them for comparison. For part of these data: A potency beside an inconclusive call is a rough fit, not a confirmed value. Active and inactive are the calls of the source. Unless noted, calls follow the shape of the dose curve; as a rule, active = well fitted curve in the direction sought with a large enough effect in the repeat runs; inconclusive = weak or mixed curves; inactive = no such curve, though single readings can be large; an effect the other way counts as inactive or inconclusive.

Experiments:
[1] = qHTS assay to identify aromatase inhibitors - cell viability counter screen (AID 743084); conditions: MCF-7 aro ERE viability, CellTiter-Fluor, 24 h; activity change, negative = cytotoxicity: at 70.3 µM (top of the series);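 also: cells stimulated with testosterone during compound exposure; nearly all actives have a fitted effect of over 55% in size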
[2] = qHTS assay for small molecule agonists of the antioxidant response element (ARE) signaling pathway (AID 743202; active = well fitted activation curve with a large enough effect in the signal ratio in the repeat runs, not every such curve was filed as active; inconclusive = weak or mixed curves, or effect the other way; inactive = no such curve, though single readings can be large or run the other way; the % refers to the signal ratio); conditions: HepG2 ARE-bla reporter, beta-lactamase FRET, 16 h; activation: at 73.3 µM (top of the series) unless noted
In short: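 Following a 16 h, 37 C exposure of reporter HepG2 cells (ARE-driven beta-lactamase, 2,000 cells/well) to compounds, FRET substrate was applied for 2 h at room temperature and fluorescence intensity recorded.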

[3] = qHTS assay for small molecule activators of the heat shock response signaling pathway (AID 743210; active = well fitted activation curve with a large enough effect in the signal ratio in the repeat runs, with a control signal flat, not every such curve was filed as active; inconclusive = weak or mixed curves; the % refers to the signal ratio); conditions: HeLa HSE-bla reporter, beta-lactamase ratio, 5 h; activation: at 62.6 µM (top of the series)
In short: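 Heat shock element–beta-lactamase HeLa reporter cells; qHTS with compounds for 5 h at 37 C; detection by FRET substrate fluorescence after 2.5 h at RT.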

[4] = target: Bile acid receptor (Homo sapiens) (UniProt Q96RI1); experiment: qHTS assay to identify small molecule antagonists of the farnesoid-X-receptor (FXR) signaling pathway (AID 743217; active = well fitted inhibition curve with a large enough effect in the signal ratio in the repeat runs, not every such curve was filed as active; inconclusive = weak or mixed curves, or effect the other way; inactive = no such curve, though single readings can be large or run the other way; the % refers to the signal ratio); conditions: HEK293T FXR-UAS-bla, beta-lactamase ratio, CDCA-stimulated, 16 h; activity change, negative = inhibition: at 62.6 µM (top of the series) unless noted
In short: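 Screen of the Tox21 10K library in quantitative HTS format using FXR-UAS-bla HEK 293T reporter cells. Agonist chenodeoxycholic acid, 50 uM final, added with compounds; 16 h incubation at 37 °C; beta-lactamase FRET fluorescence measured.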

[5] = qHTS assay to identify small molecule agonists of the farnesoid-X-receptor (FXR) signaling pathway - cell viability counter screen (AID 743218); conditions: FXR-bla HEK293T viability, CellTiter-Glo luminescence, 16 h; viability change, negative = cytotoxic: at 62.6 µM (top of the series) unless noted; also: nearly all actives have a fitted effect of over 45% in size
In short: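 Viability of FXR-bla HEK 293T cells is measured by ATP-based CellTiter-Glo luminescence following 16 h compound treatment at 37 C and a prior 2 h room-temperature beta-lactamase substrate step.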

[6] = target: Bile acid receptor (Homo sapiens) (UniProt Q96RI1); experiment: qHTS assay to identify small molecule agonists of the farnesoid-X-receptor (FXR) signaling pathway (AID 743220; active = well fitted activation curve with a large enough effect in the signal ratio in the repeat runs, not every such curve was filed as active; inconclusive = weak or mixed curves, or effect the other way; the % refers to the signal ratio); conditions: HEK293T FXR-UAS-bla, beta-lactamase FRET ratio, 16 h; activation: at 62.6 µM (top of the series) unless noted
In short: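 FXR-UAS-bla HEK 293T cells carrying a UAS-driven beta-lactamase reporter were plated for 5 h at 37C/5% CO2, then exposed to DMSO-dissolved Tox21 10K compounds for 16 h at 37C. A LiveBLAzer B/G FRET substrate was loaded for 2 h at room temperature before fluorescence reading.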

[7] = target: Vitamin D3 receptor (Homo sapiens) (UniProt P11473); experiment: qHTS assay to identify small molecule agonists of the vitamin D receptor (VDR) signaling pathway (AID 743222; calls by dose curve; as to activation: % is scaled to controls: 0 for no effect and ±100 for the full control effect); conditions: HEK293T VDR-UAS-bla, beta-lactamase FRET ratio, 16 h; activation: at 63.5 µM (top of the series) unless noted
In short: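 Fluorescence from cleaved LiveBLAzer B/G FRET substrate served as readout. VDR-bla cells had been treated 16 h at 37C with test compounds in DMSO, following a 4 h settling period, and substrate was loaded for 2 h at RT.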

[8] = target: Aryl hydrocarbon receptor (Homo sapiens) (UniProt P35869); experiment: qHTS assay to identify small molecule that activate the aryl hydrocarbon receptor (AhR) signaling pathway (AID 743085); also: nearly all actives have a fitted effect of over 15% in size;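 as to activation: HG2L7.5c1 human HepG2 liver cells with stably integrated DRE-driven firefly reporter; % is scaled to controls: 0 for no effect and ±100 for the full control effect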
In short: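 HepG2 cells stably carrying a 20-DRE firefly luciferase reporter (HG2L7.5c1) treated with compound for 24 hr at 37C. Luciferase read by ONE-Glo luminescence, with CellTiter-Fluor viability read first.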

[9] = target: Peroxisome proliferator-activated receptor gamma (Homo sapiens) (UniProt P37231); experiment: qHTS assay to identify small molecule agonists of the peroxisome proliferator-activated receptor gamma (PPARg) signaling pathway (AID 743094; active = well fitted activation curve with a large enough effect in the signal ratio in the repeat runs, not every such curve was filed as active; inconclusive = weak or mixed curves, or effect the other way; inactive = no such curve, though single readings can be large or run the other way; the % refers to the signal ratio; as to activation: % is scaled to controls: 0 for no effect and ±100 for the full control effect); conditions: HEK293H PPARg-UAS-bla, beta-lactamase FRET ratio, 17 h; activation: at 57 µM (top of the series) unless noted
In short: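 Reporter activation was scored by fluorescence of cleaved LiveBLAzer B/G substrate (1 h, room temperature) in PPARg-bla HEK293H cells previously treated 17 h at 37C with DMSO-dissolved compounds.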

[10] = target: Peroxisome proliferator-activated receptor gamma (Homo sapiens) (UniProt P37231); experiment: qHTS assay to identify small molecule antagonists of the peroxisome proliferator-activated receptor gamma (PPARg) signaling pathway (AID 743191; calls by dose curve; also: nearly all actives have a fitted effect of over 30% in size; as to ratio activity, negative = inhibition: % is scaled to controls: 0 for no effect and ±100 for the full control effect); conditions: HEK293H PPARg-UAS-bla, beta-lactamase ratio, antagonist, 17 h; ratio activity, negative = inhibition: at 62.6 µM (top of the series) unless noted
In short: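 GeneBLAzer PPARg UAS-bla HEK293H cells carrying a UAS-driven beta-lactamase reporter were plated at 3000 cells/well, preincubated 5 h at 37C, then given compound for 17 h at 37C; LiveBLAzer B/G FRET substrate was read after 1 h at room temperature.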

[11] = target: Peroxisome proliferator-activated receptor delta (Homo sapiens) (UniProt Q03181); experiment: qHTS assay to identify small molecule agonists of the peroxisome proliferator-activated receptor delta (PPARd) signaling pathway (AID 743212; calls by dose curve); conditions: HEK293H PPARd-UAS-bla, beta-lactamase FRET ratio, 17 h; activation: at 62.6 µM (top of the series) unless noted
In short: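 Beta-lactamase reporter read by fluorescence (LiveBLAzer B/G FRET, 2 h, room temperature). Test agents, in DMSO, incubated at 37 C with PPARd-bla HEK293H cells.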

[12] = target: Vitamin D3 receptor (Homo sapiens) (UniProt P11473); experiment: qHTS assay to identify small molecule antagonists of the vitamin D receptor (VDR) signaling pathway (AID 743223; active = well fitted inhibition curve with a large enough effect in the signal ratio in the repeat runs, not every such curve was filed as active; inconclusive = weak or mixed curves, or effect the other way; inactive = no such curve, though single readings can be large or run the other way; the % refers to the signal ratio); conditions: VDR-UAS-bla HEK293T, beta-lactamase FRET ratio, 16 h; activity change, negative = inhibition: at 61 µM (top of the series) unless noted
In short: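 VDR-bla cells were treated with compound plus 3 nM final 1alpha,25-dihydroxyvitamin D3 for 16 h at 37C. Beta-lactamase reporter read by B/G FRET substrate fluorescence after 2 h at room temperature. qHTS format.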

[13] = qHTS assay to identify small molecule that activate the aryl hydrocarbon receptor (AhR) signaling pathway - cell viability counter screen (AID 743086); also: nearly all actives have a fitted effect of over 45% in size
In short: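 HepG2-AhR-luc (HG2L7.5c1) cells, 4000/well, were preincubated 5 h at 37C, exposed to compound in qHTS format for 24 hr at 37C, then given CellTiter-Fluor for 30 min; viability was read as fluorescence in the reporter wells.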

[14] = qHTS assay to identify small molecule antagonists of the peroxisome proliferator-activated receptor gamma (PPARg) signaling pathway - cell viability counter screen (AID 743194); conditions: PPARg-bla HEK293H viability, CellTiter-Glo luminescence, 17 h, co-treated with 50 nM rosiglitazone; activity change, negative = cytotoxicity: at 62.6 µM (top of the series); also: nearly all actives have a fitted effect of over 55% in size
In short: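 PPARg-UAS-bla HEK293H cells were plated, rested 5 h at 37 C, then treated with compounds plus rosiglitazone (50 nM final) for 17 h at 37 C; viability was then read by CellTiter-Glo luminescence after 30 min at room temperature.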

[15] = qHTS assay to identify small molecule antagonists of the farnesoid-X-receptor (FXR) signaling pathway - cell viability counter screen (AID 743221; active = well fitted cell-killing curve with a large enough effect in the repeat runs, not every such curve was filed as active; inconclusive = weak or mixed curves, or effect the other way; inactive = no such curve, though single readings can be large or run the other way; also: nearly all actives have a fitted effect of over 50% in size); conditions: FXR-bla HEK293T viability, CellTiter-Glo luminescence, 16 h; activity change, negative = cytotoxicity: at 62.6 µM (top of the series)
In short: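 GeneBLAzer FXR-UAS-bla HEK 293T cells, compound plus chenodeoxycholic acid (50 uM final), 16 h at 37 C. CellTiter-Glo added to the same wells after the beta-lactamase read; luminescence read after 30 min at room temperature as viability.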

[16] = qHTS assay for small molecule agonists of the antioxidant response element (ARE) signaling pathway - cell viability counter screen (AID 743203; calls by dose curve; also: nearly all actives have a fitted effect of over 55% in size); conditions: ARE-bla HepG2 viability, CellTiter-Glo luminescence, 16 h; viability change, negative = cytotoxic: at 73.3 µM (top of the series)
In short: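 Viability counter screen: stably transfected ARE-bla HepG2 line, 16 hrs compound exposure at 37C/5% CO2, ATP-based CellTiter-Glo luminescence measured in the reporter wells.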

[17] = qHTS assay to identify small molecule agonists of the peroxisome proliferator-activated receptor delta (PPARd) signaling pathway - cell viability counter screen (AID 743211); conditions: PPARd-bla HEK293H viability, CellTiter-Glo luminescence, 17 h; activity change, negative = cytotoxicity: at 62.6 µM (top of the series); also: nearly all actives have a fitted effect of over 55% in size
In short: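 PPARd-bla HEK293H cells (3000/well) were pre-incubated 5 h at 37 C, then exposed to compound for 17 h at 37 C. After 2 h with LiveBLAzer substrate, CellTiter-Glo was added to the same wells; luminescence read after 30 min at room temperature.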

[18] = qHTS assay to identify small molecule antagonists of the peroxisome proliferator-activated receptor delta (PPARd) signaling pathway - cell viability counter screen (AID 743213); conditions: PPARd-bla HEK293H viability, CellTiter-Glo luminescence, 17 h; viability change, negative = cytotoxic: at 62 µM (top of the series) unless noted; also: nearly all actives have a fitted effect of over 50% in size
In short: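 Viability counter-screen, qHTS format: PPARd-bla HEK293H, L165041 300 nM final, 17 h compound exposure at 37 C, CellTiter-Glo luminescence after 30 min RT.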
Potency is read from the fitted curve at half-maximal effect; tags tell the direction and shape of the fitted curve or compound fluorescence and quenching.

Chain of UniProt Q96RI1 (Q96RI1 whole entry, looked up): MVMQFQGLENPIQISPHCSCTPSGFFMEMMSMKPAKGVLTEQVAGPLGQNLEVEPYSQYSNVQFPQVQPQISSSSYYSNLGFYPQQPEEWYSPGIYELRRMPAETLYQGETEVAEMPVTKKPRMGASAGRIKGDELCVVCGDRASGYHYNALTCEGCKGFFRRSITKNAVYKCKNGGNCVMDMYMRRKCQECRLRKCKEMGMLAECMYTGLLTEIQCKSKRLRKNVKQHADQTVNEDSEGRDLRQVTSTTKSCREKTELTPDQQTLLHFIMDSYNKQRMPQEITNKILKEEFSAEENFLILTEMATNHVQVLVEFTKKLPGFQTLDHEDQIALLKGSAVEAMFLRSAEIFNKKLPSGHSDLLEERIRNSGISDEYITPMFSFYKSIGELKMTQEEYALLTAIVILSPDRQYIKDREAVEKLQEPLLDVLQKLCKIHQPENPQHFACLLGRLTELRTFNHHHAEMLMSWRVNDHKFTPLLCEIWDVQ
Chain of UniProt P37231 (P37231 whole entry, looked up): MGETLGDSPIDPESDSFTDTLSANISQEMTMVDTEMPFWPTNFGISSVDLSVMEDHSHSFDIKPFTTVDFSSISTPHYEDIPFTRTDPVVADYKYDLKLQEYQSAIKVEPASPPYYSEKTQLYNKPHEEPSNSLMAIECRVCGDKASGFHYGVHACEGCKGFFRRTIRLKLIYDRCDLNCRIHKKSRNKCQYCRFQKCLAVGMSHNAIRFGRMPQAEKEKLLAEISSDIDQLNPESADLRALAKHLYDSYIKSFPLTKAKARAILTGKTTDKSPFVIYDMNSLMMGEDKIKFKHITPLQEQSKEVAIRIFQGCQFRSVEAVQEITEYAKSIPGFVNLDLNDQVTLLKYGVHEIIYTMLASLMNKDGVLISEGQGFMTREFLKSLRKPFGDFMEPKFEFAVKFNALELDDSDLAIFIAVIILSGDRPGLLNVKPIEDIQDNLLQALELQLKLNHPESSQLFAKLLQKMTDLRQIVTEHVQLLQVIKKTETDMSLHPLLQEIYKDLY
Chain of UniProt P35869 (P35869 whole entry, looked up): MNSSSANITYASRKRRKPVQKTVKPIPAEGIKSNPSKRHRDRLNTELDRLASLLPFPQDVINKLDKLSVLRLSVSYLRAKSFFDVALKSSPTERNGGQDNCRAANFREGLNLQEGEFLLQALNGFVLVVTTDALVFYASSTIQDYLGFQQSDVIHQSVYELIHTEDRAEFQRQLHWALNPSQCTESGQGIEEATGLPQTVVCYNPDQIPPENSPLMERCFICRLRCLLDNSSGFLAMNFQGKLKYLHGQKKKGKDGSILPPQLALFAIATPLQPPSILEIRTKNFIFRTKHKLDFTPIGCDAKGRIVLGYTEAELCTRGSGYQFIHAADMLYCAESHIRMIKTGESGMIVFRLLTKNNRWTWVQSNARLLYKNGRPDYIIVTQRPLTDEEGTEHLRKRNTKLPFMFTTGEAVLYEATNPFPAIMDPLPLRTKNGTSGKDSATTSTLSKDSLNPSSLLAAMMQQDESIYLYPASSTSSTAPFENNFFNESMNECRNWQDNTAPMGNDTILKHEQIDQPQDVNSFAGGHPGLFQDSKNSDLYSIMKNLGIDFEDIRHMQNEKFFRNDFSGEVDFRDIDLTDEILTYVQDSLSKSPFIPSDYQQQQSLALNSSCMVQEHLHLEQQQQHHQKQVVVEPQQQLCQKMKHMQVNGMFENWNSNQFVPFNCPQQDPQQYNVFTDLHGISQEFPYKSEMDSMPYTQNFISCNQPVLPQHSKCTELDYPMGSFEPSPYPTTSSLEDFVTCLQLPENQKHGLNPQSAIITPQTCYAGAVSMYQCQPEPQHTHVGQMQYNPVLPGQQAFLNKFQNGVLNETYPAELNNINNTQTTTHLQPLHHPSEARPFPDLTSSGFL
Chain of UniProt P11473 (P11473 whole entry, looked up): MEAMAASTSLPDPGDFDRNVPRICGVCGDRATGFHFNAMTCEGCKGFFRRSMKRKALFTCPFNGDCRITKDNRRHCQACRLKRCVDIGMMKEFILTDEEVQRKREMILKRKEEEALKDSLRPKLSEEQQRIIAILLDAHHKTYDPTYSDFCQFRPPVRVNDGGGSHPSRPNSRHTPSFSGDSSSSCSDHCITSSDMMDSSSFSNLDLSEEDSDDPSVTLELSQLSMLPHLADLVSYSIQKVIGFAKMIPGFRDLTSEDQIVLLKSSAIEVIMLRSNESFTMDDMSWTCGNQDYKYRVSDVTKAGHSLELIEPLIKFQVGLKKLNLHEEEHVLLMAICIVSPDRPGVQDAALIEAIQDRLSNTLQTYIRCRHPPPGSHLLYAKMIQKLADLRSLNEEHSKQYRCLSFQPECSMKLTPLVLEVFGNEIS
Chain of UniProt Q03181 (Q03181 whole entry, looked up): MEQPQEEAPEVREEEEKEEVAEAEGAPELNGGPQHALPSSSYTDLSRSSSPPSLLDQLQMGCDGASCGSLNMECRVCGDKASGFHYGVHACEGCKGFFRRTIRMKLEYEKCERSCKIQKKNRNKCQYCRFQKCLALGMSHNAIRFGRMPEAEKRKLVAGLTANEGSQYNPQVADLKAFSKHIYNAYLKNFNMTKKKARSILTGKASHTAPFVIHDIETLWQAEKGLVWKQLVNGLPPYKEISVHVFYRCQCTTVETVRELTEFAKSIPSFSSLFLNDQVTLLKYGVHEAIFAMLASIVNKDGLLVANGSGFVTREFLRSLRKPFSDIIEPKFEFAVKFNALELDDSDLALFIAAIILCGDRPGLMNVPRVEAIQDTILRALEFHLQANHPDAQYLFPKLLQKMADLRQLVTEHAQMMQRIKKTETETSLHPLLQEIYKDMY

CNCC[C@H](Oc1cccc2ccccc12)c1cccs1
active: Potency [5] 6.68 µM
inconclusive: Potency [1] 18.8 µM [cytotoxic, partial curve, poor fit] | Potency [2] 16.8 µM [falling, partial curve] | Potency [3] 26.6 µM [falling, partial curve] | Potency [4] 33.5 µM [cytotoxic, single point] | Potency [6] 26.6 µM [falling, partial curve] | activation [7] 9.12%

CCOC(=O)/C=C(C)/C=C/C=C(C)/C=C/c1c(C)cc(OC)c(C)c1C
inconclusive: Potency [8] 18.8 µM [activator, partial curve] | Potency [9] 23.9 µM [rising, partial curve, poor fit] | Potency [10] 15 µM [fluorescent, partial curve] | Potency [2] 23.7 µM [rising, partial curve] | Potency [3] 22.8 µM [fluorescent] | Potency [11] 29.8 µM | Potency [4] 29.8 µM [fluorescent] | Potency [6] 33.5 µM [fluorescent] | Potency [7] 33.5 µM [fluorescent, single point] | Potency [12] 23.9 µM [rising, partial curve]

CO[C@H]1C=CO[C@@]2(C)Oc3c(C)c(O)c4c(O)c(c(/C=N/N5CCN(C)CC5)c(O)c4c3C2=O)NC(=O)/C(C)=C\C=C[C@H](C)[C@H](O)[C@@H](C)[C@@H](O)[C@@H](C)[C@H](OC(C)=O)[C@@H]1C
inconclusive: activation [9] -18% [at 78.9 µM] | ratio activity, negative = inhibition [10] 14.9% and -25.8% | Potency [14] 17.6 µM [rising, partial curve, poor fit] | Potency [2] 2.74 µM [rising, full curve, poor fit] and 1.55 µM [rising, full curve, poor fit] and 1.33 µM [rising, full curve, poor fit] | Potency [7] 26.6 µM [inhibitor, partial curve, poor fit]
active: Potency [13] 29.8 µM and 27.4 µM and 15.5 µM
inactive: Potency [8] | Potency [15]

O=[N+]([O-])c1ccc(O/N=C/c2cc(Br)c(O)c(Br)c2)c([N+](=O)[O-])c1
inconclusive: Potency [8] 68.2 µM [activator, single point] | Potency [14] 5.47 µM [cytotoxic, full curve] | Potency [16] 24.2 µM [cytotoxic, partial curve] | Potency [3] 13.7 µM [falling, full curve] | Potency [17] 9.72 µM [cytotoxic, partial curve, poor fit] | Potency [18] 2.44 µM [cytotoxic, full curve] | Potency [15] 0.688 µM [falling, full curve, poor fit]
inactive: Potency [9] | Potency [5]
active: Potency [10] 19.4 µM | Potency [2] 8.59 µM
